The values that follow come from the supplement of paper PMC12217912.

The other results are listed elsewhere or left out. The full chains were built here from the parent and the listed change. Inactive controls read about 0.05.

B1: TEV protease; numbered along this chain (parent)
chain: MGESLFKGPRDYNPISSSICHLTNESDGHTTSLYGIGFGPFIITNKHLFRRNNGTLVVQSLHGVFKVKDTTTLQQHLVDGRDMIIIRMPKDFPPFPQKLKFREPQREERICLVTTNFQTKSMSSMVSDTSCTFPSGDGIFWKHWIQTKDGQCGSPLVSTRDGFIVGIHSASNFTNTNNYFTSVPKNFMELLTNQEAQQWVSGWRLNADSVLWGGHKVFMVKPEEPFQPVKEATQL

In this experiment the parent is B1. Description: raw area under fraction-flipped curve 0-4 h after induction (AUC4h, not background-subtracted), DNA-recorder readout of cleavage of the substrate (dimensionless); higher = more cleavage of the substrate by the protease variant. The conditions noted are these: temperature: 34 °C; time window: 0-4 h after rhamnose induction. Here is the method:
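In vivo DNA recorder in E. coli TOP10(DE3) ΔrhaA at 34 °C. Each TEVp single-site mutant (parent TEVp 0) is paired with a single-site variant of the 7-mer TEVs (canonical ENLYFQ|S). The substrate sits between flexible linkers in a Bxb1-sfGFP-TEVs-SsrA fusion, so cleavage stabilises Bxb1 and speeds flipping of a recombination array, read by NGS. The value is the raw area under the fraction-flipped curve over 0-4 h after rhamnose induction (AUC4h), with ≥20 reads per time point. It is not background-subtracted; inactive controls average about 0.047.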
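Note: Bxb1 expression induced with 0.2% (w/v) L-rhamnose at OD600 near 0.5, cultures sampled hourly, flipped fraction per protease–substrate barcode pair counted by paired-end Illumina sequencing.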

Regarding MGESLFKGPRDYNPISSSICHLTNESDGHTTSLYGIGFGPFIITNKHLFRRNNGTLVVQSLHGVFKVKDTTTLQQHLVDGRDMIIIRMPKDFPPFPQKLKFREPQREERICLVTTNFQTKSMSSMVSDTSCTFPSGDGIFWKHWIQTKDGQCGSPLVSTRDGFIVGIHSASNFTNTNNYFTSVPKNFMELLTNQEAQMWVSGWRLNADSVLWGGHKVFMVKPEEPFQPVKEATQL [Q198M], the “area with substrate ENLYFAS” value was determined as 0.0592, the “area with substrate ENLYFCS” value stood at 0.064, the “area with substrate ENLYFES” value stood at 0.0593 and the “area with substrate ENLYFFS” value is 0.113. Further, the “area with substrate ENLYFHS” value came out at 0.0498, the “area with substrate ENLYFIS” value is 0.0622, the “area with substrate ENLYFKS” value worked out at 0.0525 and the “area with substrate ENLYFMS” value stood at 0.0661. The “area with substrate ENLYFPS” value came out at 0.062, the “area with substrate ENLYFRS” value turned out to be 0.0703, the “area with substrate ENLYFSS” value came to 0.0602 and the “area with substrate ENLYFTS” value amounted to 0.06. Further, the “area with substrate ENLYFVS” value was determined as 0.0626 and the “area with substrate ENLYFYS” value amounted to 0.063.
As for MGESLFKGPRDYNPISSSICHLTNESDGHTTSLYGIGFGPFIITNKHLFRRNNGTLVVQSLHGVFKVKDTTTLQQHLVDGRDMIIIRMPKDFPPFPQKLKFREPQREERICLVTTNFQTKSMSSMVSDTSCTFPSGDGIFWKHWIQTKDGQCGSPLVSTRDGFIVGIHSASNFTNTNNYFTSVPKNFMELLTNYEAQQWVSGWRLNADSVLWGGHKVFMVKPEEPFQPVKEATQL [Q194Y], the “area with substrate ENLYFAS” value was found to be 0.0665, the “area with substrate ENLYFDS” value is 0.0531, the “area with substrate ENLYFES” value worked out at 0.0668 and the “area with substrate ENLYFHS” value was 0.0684. Besides, the “area with substrate ENLYFIS” value was determined as 0.0574, the “area with substrate ENLYFKS” value stood at 0.0642, the “area with substrate ENLYFNS” value is 0.0584 and the “area with substrate ENLYFPS” value was found to be 0.0645. Further, the “area with substrate ENLYFVS” value was 0.0543 and the “area with substrate ENLYFYS” value was 0.0603.
In the case of MGESLFKGPRDYNPISSSICHLTNESDGHTTSLYGIGFGPFIITNKHLFRRNNGTLVVQSLHGVFKVKDTTTLQQHLVDGRDMIIIRMPKDFPPFPQKLKFREPQREERICLVTTNFQTKSMSSMVSDTSCTFPSGDGIFWKHWIQTKDGQCGSPLVSTRDGFIVGIHSASNFTNTNNYFTSVPKNFAELLTNQEAQQWVSGWRLNADSVLWGGHKVFMVKPEEPFQPVKEATQL [M188A], the “area with substrate ENLYFAS” value is 0.062, the “area with substrate ENLYFCS” value turned out to be 0.0697, the “area with substrate ENLYFES” value is 0.0507 and the “area with substrate ENLYFFS” value worked out at 0.0756. The “area with substrate ENLYFGS” value came to 0.0624, the “area with substrate ENLYFKS” value came out at 0.0657, the “area with substrate ENLYFLS” value was found to be 0.0661 and the “area with substrate ENLYFMS” value came out at 0.0645. Besides, the “area with substrate ENLYFPS” value was determined as 0.0602, the “area with substrate ENLYFSS” value came to 0.0617, the “area with substrate ENLYFTS” value turned out to be 0.0491 and the “area with substrate ENLYFVS” value worked out at 0.0521.
On to MGESLFKGPRDYNPISSSICHLTNESDGHTTSLYGIGFGPFIITNKHLFRRNNGTLVVQSLHGVFKVKDTTTLQQHLVDGRDMIIIRMPKDFPPFPQKLKFREPQREERICLVTTNFQTKSMSSMVSDTSCTFPSGDGIFWKHWIQTKDGQCGSPLVSTRDGFIVGIHSASNFTNTNNYFTSQPKNFMELLTNQEAQQWVSGWRLNADSVLWGGHKVFMVKPEEPFQPVKEATQL [V183Q], for which the “area with substrate ENLYFAS” value came to 0.0457, the “area with substrate ENLYFES” value is 0.0558, the “area with substrate ENLYFGS” value was determined as 0.0461 and the “area with substrate ENLYFHS” value is 0.052. Besides, the “area with substrate ENLYFIS” value was 0.0584, the “area with substrate ENLYFKS” value was found to be 0.0583, the “area with substrate ENLYFLS” value is 0.0558 and the “area with substrate ENLYFMS” value came out at 0.0431. Besides, the “area with substrate ENLYFNS” value was found to be 0.0629, the “area with substrate ENLYFPS” value turned out to be 0.035, the “area with substrate ENLYFTS” value stood at 0.0408 and the “area with substrate ENLYFVS” value amounted to 0.0541. Also, the “area with substrate ENLYFYS” value stood at 0.0606.
For the variant MGESLFKGPRDYNPISSSICHLTNESDGHTTSLYGIGFGPFIITNKHLFRRNNGTLVVQSLHGVFKVKDTTTLQQHLVDGRDMIIIRMPKDFPPFPQKLKFREPQREERICLVTTNFQTKSMSSMVSDTSCTFPSGDGIFWKHWIQTKDGQCGSPLVSTRDGFIVGIHSASNFTNTNNYFTSVPKNFMFLLTNQEAQQWVSGWRLNADSVLWGGHKVFMVKPEEPFQPVKEATQL [E189F], the “area with substrate ENLYFAS” value was found to be 0.0553, the “area with substrate ENLYFFS” value was determined as 0.0785, the “area with substrate ENLYFIS” value was found to be 0.0617 and the “area with substrate ENLYFMS” value was determined as 0.0672. Moreover, the “area with substrate ENLYFNS” value was 0.0715, the “area with substrate ENLYFPS” value came out at 0.0398, the “area with substrate ENLYFRS” value amounted to 0.0609 and the “area with substrate ENLYFTS” value was 0.0525. The “area with substrate ENLYFWS” value was found to be 0.0515.
With MGESLFKGPRDYNPISSSICHLTNESDGHTTSLYGIGFGPFIITNKHLFRRNNGTLVVQSLHGVFKVKDTTTLQQHLVDGRDMIIIRMPKDFPPFPQKLKFREPQREERICLVTTNFQTKSMSSMVSDTSCTFPSGDGIFWKHWIQTKDGQCGSPLVSTRDGFIVGIHSASNFTNTNNYFTSVPKNFMELLTNQEAQQWVSDWRLNADSVLWGGHKVFMVKPEEPFQPVKEATQL [G202D], the “area with substrate ENLYFAS” value was 0.0588, the “area with substrate ENLYFFS” value amounted to 0.07, the “area with substrate ENLYFGS” value was 0.065 and the “area with substrate ENLYFHS” value was determined as 0.0675. The “area with substrate ENLYFIS” value was 0.0554, the “area with substrate ENLYFLS” value is 0.0575, the “area with substrate ENLYFMS” value was found to be 0.0565 and the “area with substrate ENLYFNS” value turned out to be 0.0572. Also, the “area with substrate ENLYFRS” value stood at 0.0656, the “area with substrate ENLYFTS” value is 0.0504, the “area with substrate ENLYFWS” value is 0.058 and the “area with substrate ENLYFYS” value came out at 0.0501.
With MGESLFKGPRDYNPISSSICHLTNESDGHTTSLYGIGFGPFIITNKHLFRRNNGTLVVQSLHGVFKVKDTTTLQQHLVDGRDMIIIRMPKDFPPFPQKLKFREPQREERICLVTTNFQTKSMSSMVSDTSCTFPSGDGIFWKHWIQTKDGQCGSPLVSTRDGFIVGIHSASNFTNTNNYFTSVPKNFMELLTNQEAQQWVSPWRLNADSVLWGGHKVFMVKPEEPFQPVKEATQL [G202P], the “area with substrate ENLYFAS” value turned out to be 0.0679, the “area with substrate ENLYFCS” value came to 0.0512, the “area with substrate ENLYFDS” value is 0.0587 and the “area with substrate ENLYFES” value amounted to 0.0564. The “area with substrate ENLYFFS” value worked out at 0.0742, the “area with substrate ENLYFHS” value was 0.0611, the “area with substrate ENLYFIS” value was found to be 0.0691 and the “area with substrate ENLYFKS” value is 0.0646. Further, the “area with substrate ENLYFLS” value came to 0.0686, the “area with substrate ENLYFMS” value stood at 0.0623, the “area with substrate ENLYFNS” value came to 0.0592 and the “area with substrate ENLYFPS” value worked out at 0.0421. Moreover, the “area with substrate ENLYFRS” value came to 0.0574, the “area with substrate ENLYFSS” value is 0.0589, the “area with substrate ENLYFTS” value came out at 0.0617 and the “area with substrate ENLYFVS” value was 0.0697. Further, the “area with substrate ENLYFWS” value came out at 0.0794 and the “area with substrate ENLYFYS” value came out at 0.0673.
On to MGESLFKGPRDYNPISSSICHLTNESDGHTTSLYGIGFGPFIITNKHLFRRNNGTLVVQSLHGVFKVKDTTTLQQHLVDGRDMIIIRMPKDFPPFPQKLKFREPQREERICLVTTNFQTKSMSSMVSDTSCTFPSGDGIFWKHWIQTKDGQCGSPLVSTRDGFIVGIHSASNFTNTNNYFTSVPKNFMELETNQEAQQWVSGWRLNADSVLWGGHKVFMVKPEEPFQPVKEATQL [L191E], for which the “area with substrate ENLYFAS” value worked out at 0.07, the “area with substrate ENLYFCS” value worked out at 0.0548, the “area with substrate ENLYFES” value was 0.0592 and the “area with substrate ENLYFFS” value worked out at 0.0613. The “area with substrate ENLYFIS” value worked out at 0.0561, the “area with substrate ENLYFKS” value was found to be 0.0527, the “area with substrate ENLYFMS” value was 0.0659 and the “area with substrate ENLYFNS” value is 0.0472. Also, the “area with substrate ENLYFPS” value came out at 0.0627, the “area with substrate ENLYFTS” value was found to be 0.0518, the “area with substrate ENLYFVS” value is 0.0464 and the “area with substrate ENLYFYS” value came to 0.0502.
For MGESLFKGPRDYNPISSSICHLTNESDGHTTSLYGIGFGPFIITNKHLFRRNNGTLVVQSLHGVFKVKDTTTLQQHLVDGRDMIIIRMPKDFPPFPQKLKFREPQREERICLVTTNFQTKSMSSMVSDTSCTFPSGDGIFWKHWIQTKDGQCGSPLVSTRDGFIVGIHSASNFTNTNNYFTYVPKNFMELLTNQEAQQWVSGWRLNADSVLWGGHKVFMVKPEEPFQPVKEATQL [S182Y], the “area with substrate ENLYFAS” value turned out to be 0.0515, the “area with substrate ENLYFCS” value was 0.0563, the “area with substrate ENLYFDS” value stood at 0.0644 and the “area with substrate ENLYFES” value amounted to 0.0562. The “area with substrate ENLYFFS” value amounted to 0.0553, the “area with substrate ENLYFIS” value turned out to be 0.0534, the “area with substrate ENLYFMS” value was found to be 0.0548 and the “area with substrate ENLYFPS” value is 0.0396. The “area with substrate ENLYFRS” value is 0.0425, the “area with substrate ENLYFTS” value stood at 0.0663, the “area with substrate ENLYFVS” value was found to be 0.0365 and the “area with substrate ENLYFWS” value was 0.0437. Besides, the “area with substrate ENLYFYS” value was determined as 0.0654.
